Reference: PubChem BioAssay AID686979 (National Center for Advancing Translational Sciences (NCATS), 2013)
The campaign covered roughly 420,000 compounds. About 50,000 (12%) were called active. Inconclusive results, whose numbers are uncertain, are shown with a selection of clear calls. The call rests on the fitted dose curve; in most records, active means well fitted inhibition curve with a large enough effect; inconclusive means small, poorly fitted or top-dose-only effect; inactive means flat fitted curve, though single readings scatter. No potency is given beside an inconclusive call; the fits are too rough.

assay: qHTS for Inhibitors of human tyrosyl-DNA phosphodiesterase 1 (TDP1): qHTS in cells in presence of CPT; conditions: chicken DT40 Tdp1-/-;hTDP1 cells + 20 nM CPT, ATP luminescence, 48 h; activity change, negative = growth inhibition: at 46.2 µM (top of the series) unless noted; further: nearly all actives have a fitted effect of over 55% in size
Procedure, shortened: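 Chicken DT40 Tdp1-/- cells complemented with human TDP1, 400 cells/well, exposed to compounds plus 20 nM camptothecin for at least 48 h at 37 C; viability read as ATP content by CellTiter-Glo luminescence.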
On the % scale 0 is the no-effect control and ±100 the full control effect; potency means the concentration at half of the fitted maximal effect; tags describe the fitted curve by direction and shape.

Compound	Potency	activity change, negative = growth inhibition
Cc1noc(/C=C/N(C)C)c1S(=O)(=O)N1CCC(C(=O)Nc2ccc(Cl)cc2)CC1	inconclusive [inhibitor, partial curve]	–
CC(C)COP(=O)(OCC(C)C)C(Nc1ccccc1)c1ccc(F)cc1 (configuration not stated)	inconclusive [inhibitor, single point]	–
CCC(CC)c1nnc(NC(=O)c2cccc(S(=O)(=O)N3CCc4ccccc43)c2)s1	inconclusive [inhibitor, partial curve, poor fit]	–
COc1ccc(/C(N)=N/OC(=O)CN(C)S(=O)(=O)c2ccc(C)cc2)cc1	inconclusive [inhibitor, single point]	–
O=C(COC(=O)C12CC3CC(CC(Br)(C3)C1)C2)NCc1ccco1	–	inactive: -5.99%
Cc1ccc(C)c(S(=O)(=O)NCc2ccncc2)c1	inconclusive [inhibitor, single point]	–
O=C(Nc1ccc(S(=O)(=O)NCC2CCCO2)cc1)c1cccc(F)c1 (configuration not stated)	inconclusive [inhibitor, partial curve]	–
Cc1c(Cl)cccc1-n1ncc(C(=O)Nc2ccc3c(c2)OCCO3)c1C1CCN(C(=O)OC(C)(C)C)CC1	inconclusive [inhibitor, single point]	–
C[C@H](CO)N1C[C@H](C)[C@@H](CN(C)S(=O)(=O)c2cccs2)Oc2ccc(NC(=O)C3CC3)cc2C1=O	–	inactive: -12.4%
CC1=C(C(=O)N2CCOCC2)CC(CC(=O)NCc2ccco2)C(=O)N1CCC1=CCCCC1 (configuration not stated)	–	inactive: -10.5%
C=CC[C@H](CC(=O)OC(C)(C)C)C(=O)OC[C@H]1CCCN1C(=O)[C@H](CC=C)CC(=O)N(CCO)Cc1ccccc1	active: 16.4 µM	–
CC(O)CNCc1ccc(Cl)cc1Cl (configuration not stated)	–	inactive: -6.22%
O=C(C[N+]12CCCc3cccc(c31)CCC2)c1ccc2ccc3cccc4ccc1c2c34	active: 6.31 µM	–
O=C(COC(=O)c1cc(-c2ccccn2)nc2ccccc12)Nc1ncc(C(F)(F)F)cc1Cl	inconclusive [inhibitor, single point]	–
O=C(C[n+]1c2ccccc2cc2ccccc21)c1ccc(F)cc1	inconclusive [inhibitor, partial curve, poor fit]	–
O=C(Nc1cc(Oc2ccc(Cl)cc2)cc([N+](=O)[O-])c1)c1ccco1	inconclusive [inhibitor, single point]	–
CCOC(=O)C1CCN(C(=O)c2cc3c(=O)n4ccccc4nc3s2)CC1	–	inactive: 11.1%
Cc1nnc(SCC(=O)Nc2cc(-c3cc(C)c(C)cc3C)nn2-c2ccccc2)s1	active: 20.6 µM	–
Cc1ccc2cc3cc(C(=O)Nc4ccc(F)cc4Cl)oc3nc2c1	inconclusive [inhibitor, single point]	–
Cc1ccccc1NC(=O)c1ccc(CN2CCc3ccccc3C2)cc1	inconclusive [inhibitor, single point]	–
Cc1cc(C)n2nc(C(=O)N(C)C(c3ccccc3)c3ccccc3)nc2n1	–	inconclusive: -32.5% [inhibitor]

Compound	Potency	activity change, negative = growth inhibition
CC(C)(C)NC(=O)C(c1cccs1)N(CC1CCCO1)C(=O)c1ccc(-c2ccccc2)[nH]1 (configuration not stated)	active: 23.1 µM	–
C=C(c1ccccc1)c1ccccc1N	–	inactive: 10.7%
Cc1ccc(Nc2nc(N)nc(N)c2N=O)cc1Cl	active: 10.5 µM	–
CO[C@H]1/C=C\O[C@@]2(C)Oc3c(C)c(O)c4c(O)c(c(C=NN5CCN(C6CCCC6)CC5)c(O)c4c3C2=O)NC(=O)C(C)=CC=C[C@H](C)[C@H](O)[C@@H](C)[C@@H](O)[C@@H](C)[C@H](OC(C)=O)[C@H]1C	active: 5.62 µM	–
CC(C)c1ccc(/C=C(\c2nc3ccccc3[nH]2)S(=O)(=O)c2ccccc2)cc1	active: 4.61 µM	–
Cc1cc(C)c(NC(=O)Cn2nc(-c3ccccc3)nc2-c2ccccc2)c(C)c1	inconclusive [inhibitor, single point]	–
CC1=CC(Cc2ccccc2)N(C)C(C(N)=O)C1 (configuration not stated)	–	inactive: -14.8%
CC(OC(=O)CN1C(=O)c2ccccc2C1=O)C(=O)NCc1ccccc1 (configuration not stated)	–	inactive: -18.5%
COc1ccccc1/C=C/CN1CCCC(CCC(=O)NCc2ccccc2F)C1 (configuration not stated)	active: 18.4 µM	–
Cc1cccc(NC(=S)Nc2cccc(C(F)(F)F)c2)n1	inconclusive [inhibitor, single point]	–
O=C(c1nn(-c2ccccc2)c(=O)c2ccccc12)N1CCN(c2ccccn2)CC1	inconclusive [inhibitor, partial curve]	–
Cc1cccc(C(=O)N/N=C/c2ccc(OCC(=O)N3CCCCC3)cc2)c1	inconclusive [inhibitor, single point]	–
CCCC[C@@H]1Cc2[nH][nH]c(=O)c2[C@H](c2ccc(C(C)C)cc2)O1	inconclusive [inhibitor, single point]	–
CCCCCCCCCCCCCCCC(=O)Nc1ccn(C2OC(CO)C(O)C2O)c(=O)n1 (configuration not stated)	active: 0.651 µM	–
CN(C)c1ccc(C#Cc2ccc3cc(CCCO)oc(=O)c3c2)cc1	inconclusive [inhibitor, partial curve]	–
CCCNC(=O)COC(=O)c1cc(-c2ccc(OC)cc2)nc2ccccc12	inconclusive [inhibitor, single point]	–
CC(C)CNC(=O)COc1ccc(Sc2ccc(OCC(=O)NCC(C)C)cc2)cc1	inconclusive [inhibitor, full curve]	–
COc1cccc(S(=O)(=O)Nc2ccc(C(O)(C(F)(F)F)C(F)(F)F)cc2)c1	active: 16.4 µM	–
CCC(C)NC(=O)c1cc2c(=O)[nH]c3ccc(C)cc3c2s1 (configuration not stated)	inconclusive [inhibitor, single point]	–
CCN(CC)S(=O)(=O)c1ccc2c(c1)N(CC(=O)N1CCN(c3cccc(C(F)(F)F)c3)CC1)C(=O)CO2	inconclusive [inhibitor, single point]	–
O=S(=O)(NCCc1cn2ccccc2n1)c1ccc(-c2ccccc2)cc1	inconclusive [inhibitor, single point]	–
